Sequences with one replicate were seen in a single cluster, so their values are uncertain.
System: ATP
Assay: switch fluorescence ratio, 500 uM ATP over buffer (Cy3 cluster intensity, sum of 5 cycles each) (fold (ratio)); higher = stronger signal-on switching upon ATP binding; sequences stand for … in TCGTCGGCAGCGTCAGATGTGTATAAGAGACAGTTTTTTTTTTTTTTTTTTTTTTTTT…TC
Conditions: aptamer strand: ATP DNA aptamer (quencher-CACCTGGGGGAGTATTGCGGAGGAAGG + anchor), 100 nM annealed; ATP concentration: 500 uM; one replicate
Outline: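 After annealing to 100 nM quencher-labelled ATP aptamer, Cy3-labelled switching-strand clusters on a modified Illumina MiSeq flow-cell were imaged in selection buffer. A second image followed after 15 min with 500 uM ATP at 22 °C, and five such buffer/ATP cycles were done, each separated by NaOH stripping and re-annealing. The fluorescence ratio, averaged per switch-domain sequence, is summed target-cycle over summed buffer-cycle Cy3 intensity per cluster, with clusters outside 100-1000 RFU excluded.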
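Also: ATP exposure 15 min at 22 °C before imaging.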

Sequence	switch fluorescence ratio
CGCTTGACGC	1.01
TGGATATTAG	1.03
CGTGCACCC	0.991
TTCTATTATT	1.01
TCTAGGATGC	1.07
TTGCCCCGCG	1.09
CTATCGGTCT	0.945
ATCACTTTTG	1.03
AAACGTAGTG	1.08
CAGAGTACTG	1.01
ACAGTGTGAA	1.02
TAGATACAGT	1.06
GGCCGATCAG	0.993
GCCGTCGGTC	1
TACAGAGGTA	1.01
TCAATCACCT	1.12
TTAATCAGGC	1.07
CGCTGGAATG	1.04
CGCATAAGGT	1.13
TTCAAGGGC	0.982
CATTAGTGAT	1.03
CTGACTCTTT	1.1
AGAAAGCGGG	0.992
CTGGTCCGAT	0.975
TAAAAATTGA	0.985
AACTGTATTT	1.08

Sequence	switch fluorescence ratio
ATCGTTGTGC	0.986
TTTTAGTTCA	1.02
GGATTCCCCC	0.999
CGCAGGAGGA	1.06
TGGCACTAGC	1.02
GCGTTGGGCC	1.05
CGGGTGATGT	0.963
TAGGTTG	1.05
GGCCATTATT	0.994
CATAGGGAGG	0.965
CATGCATTGG	1.01
CATAGGTA	1.01
TACGACTCAC	1.5
TCGTTCTCTG	0.967
GGGATTGTAC	1.12
TATTGCATAT	1.02
ATATAAGGCA	0.977
ATTAACCCCG	1.04
AGGGGCTACG	1.02
AGGAACAATA	1.01
TTCGCCTACT	1.14
TAATTATTGC	1
AGAAAATTCA	1.05
TAGAAGGGG	1.19
AGTACCAGTA	1.05
TGGTATTGCC	1.04

Sequence	switch fluorescence ratio
ACGTCTTGTT	0.974
ATAGACATGT	0.997
AGCGGCCCGA	1.01
CGGAAAACGA	0.989
CGTTTACAAC	0.985
TGGCTAACGT	1.07
CACAAGGGTC	0.969
TTCAATACGG	1.27
AGGAACGACT	0.967
AAATATGTGA	0.999
AAGTCACAGT	1.08
AGAGTCAGCC	1.05
CGCATTGTTG	1.04
TAGAACGCTT	1.01
CCCGCTTGGA	1.17
GTGCTGTGTC	1.01
CTTCTGGAAT	1.59
ACAGAATGGG	0.942
CTATTTGTCT	0.966
GCCTTGGGAG	0.979
TCTGTTGGGA	0.988
ATGTACTGCC	1.06
AGTCTGAATA	0.959
GATTTTACTG	1.14
TTGGAAGGCC	0.953
CATGGGACGA	1.02

Sequence	switch fluorescence ratio
AAGAGCCTT	1.01
TCGAGCCCGG	1.31
TCGCTCCTCA	1.1
TTCGTCGTCT	1.03
GGCGGTCGG	0.983
TCCCGATCAG	0.998
GGTGAAATAT	1.01
CCATGTACCA	1.08
CAAGCATCTC	1.26
AACGGTTCGT	1
GGGAGTAAGA	0.981
CGCATTCAGT	1.13
CAGGTCTTAG	1.03
CGGAGGGCTC	1.03
GTTGTGGTGC	1.05
AAGTGGGCGA	1.03
AGGCTACTAC	1.11
TAGACGTTTG	1
GCCTAGGCTC	0.996
GTCGCTGCGG	1.01
CGAGATCGCG	0.967
AGTCTGGTAC	1.05
TTATGAGCTT	1.05
AATATCCAG	0.984
CCACGTAAGG	1.3
TGGTCATACG	1

Sequence	switch fluorescence ratio
ATACAATATC	1.06
AAAACACT	1.04
ACTATTCGCG	0.989
GTGGAGTAGT	1.02
GTTGCATGGT	1.05
TTCGAAAAGG	1.04
AATCGGTATG	0.991
TATAGTCGG	0.976
GCAATAGCTT	1.09
CGTCAAATTT	0.951
ATCGTCCTGC	1.05
TTCCAAAGTG	1.07
AAGTAAACGG	1.07
GCGTGGCCCG	1.02
TCGATTTGTT	1.03
GACTGCCTTA	1.03
ATAATACCTG	1.02
AATGGGGTC	1
CACTACCGCA	1.06
CGAAGGTCGT	1.03
GGATTCAAAT	1.01
TGCTCTTTCG	0.938
ATTGTTTCCG	1.05
CGGGGACCTT	1.06
AGTTGATGGC	0.969
ATATAGAGGA	1

Sequence	switch fluorescence ratio
TGCACTCGGT	0.979
GATCGATGTC	1.1
CTTTGGCTCA	1.04
TCTGTGAGAG	0.993
AGGGGCTGT	1.02
ACAAGACACT	1.02
CTATTCGTAA	1.16
GTTGGCTAAT	1.01
TGGTTATTCC	0.963
AACATTTCAT	1.01
CTGAATACCA	1.01
ATCCTCCTA	1.08
AAGTTTCAAT	0.991
TTCTTGCTGT	1.01
AAGGAGGTTC	1
TACGTACTTA	1.44
TTCGTCTCCC	1.06
GAATAGGCGG	1.03
GGCGTTGTGA	1
CGCTACTGTG	1.04
TTGGTTCCCC	1.07
TCCATGGAAT	0.973
GCTTAGTGCT	0.991
CACGGGTGGG	1.02
TCGCTGCGAT	1.08
TTGCTGTTTT	0.979

Sequence	switch fluorescence ratio
GATGTATCCT	1.05
TAGTCCGATA	0.984
GTAAAACCGA	1.03
GTGTAAGTAA	0.978
GGGCCGAATT	1.02
TAGCCGCTAT	1.27
GAATCACTTT	1.02
ACAGAGAAAC	1.07
GACATATTTT	1.05
TCGCAGGAGG	0.963
TTTAAAAGCG	0.965
GGTTATAT	0.999
GACGGAAGGT	1.07
AATCTTTTTT	1.02
ATGTTCAGTA	0.991
AGCCTAGGAA	0.984
GTCCTTAGTT	1.02
TAATGATATT	1.02
ATTGGATAGT	0.999
CGGAGTCGA	1.17
GCCGACGTCC	1.11
GGACTGGCAA	1.44
GCTTTAGACT	1.01
AAATGTAACG	1.08
CGCGGTGTTA	1.07
TTTTGTTACG	1.03

Sequence	switch fluorescence ratio
TCGTACGTCA	1.04
CCACACAGCA	1.28
TTCACCCAGC	1.26
ATAGCATCGA	1.02
CTTGTCGTCT	1.05
TATACTCATA	1.07
CGAAACATCT	1.02
CACTGATATT	1.1
GGACGTAGCC	1.06
TGGGACTGGT	0.978
CGTATGCGTG	0.956
TGGGCCCTGT	0.982
GGGTCCCTTA	1.01
CGCATCGCCG	1.09
GGATGCGCCG	0.93
CTCGTTCCCT	1
GTCATGGGTG	1.07
TAGCATTTAG	1.04
GGGGAGCCAA	0.981

Reference: the supplement of paper PMC10126150
